Measurements from article PMC4242493.
Some of the results follow. The list includes weakly bound sequences.

Target: MaxL homodimer (UniProt P61244)
Assay: universal protein-binding microarray (PBM)
Details: PBS-based mixture, 10 nM His-tagged protein dimer, 2% milk, 200 ng/uL BSA, 50 ng/uL salmon testes DNA, 0.02% TX-100; detection with Alexa 488 anti-His …; high values mean tight binding; most listed sequences are background and not binding sites; double strand, one strand shown

Sequence of UniProt P61244 (P61244 whole entry): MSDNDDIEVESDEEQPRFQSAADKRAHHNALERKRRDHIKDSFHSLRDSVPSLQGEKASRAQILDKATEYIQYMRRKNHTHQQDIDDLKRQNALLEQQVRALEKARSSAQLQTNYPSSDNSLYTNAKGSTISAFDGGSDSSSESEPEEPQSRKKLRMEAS

Sequence | binding signal (normalized occupancy)
AAGGAGAA | 0.0761
CTTGGCCA | 0.0734
CTCGTCAG | 0.0717
AGACGACG | 0.0782
GCAATCCC | 0.0713
ACCCTAGC | 0.0745
AGTGGCGG | 0.0685
CGGGACCA | 0.0709
CGTTGGTC | 0.0765
CAACGCCC | 0.078
GTCTGTTA | 0.0766
GACCACTC | 0.0788
CTTTCTTA | 0.0794
ACTAAACT | 0.0746
GGACCGAA | 0.0678
GCATCCAA | 0.0768
CACCCTCG | 0.0767
AAAATTCG | 0.0731
GTCGCGTA | 0.0716
GGGTTGTA | 0.0853
CATATAAA | 0.0803
CTGCTCAA | 0.0738
ACTTGCAT | 0.0774
GGACGGCA | 0.0718
TCTGTCAA | 0.0727

Sequence | binding signal (normalized occupancy)
AGTTCACC | 0.0724
AGAGTGGG | 0.0749
GCGATCGC | 0.0825
TACAATGA | 0.0869
AATGCCAC | 0.0851
AGGTCCAA | 0.0786
CCGGGCGC | 0.0655
TGTAAGAA | 0.0734
CAGCTACA | 0.0736
TAATCCGA | 0.0761
AGACATAT | 0.0822
TCGTGTAA | 0.0836
CAAATGAA | 0.0748
AATCTAAG | 0.0751
AACTCAGT | 0.0711
ACCTCTCG | 0.0709
GTTGAAGA | 0.082
CGACGTTC | 0.0713
AGACGTCC | 0.0732
GCCTTCAC | 0.0755
AGATATGG | 0.0794
GTCTGATA | 0.0826
CATTGGGA | 0.0767
ATTCAGGC | 0.0733
AAATTCCC | 0.075

Sequence | binding signal (normalized occupancy)
GCTGAAGA | 0.0745
CCGGCTCA | 0.0708
CATCTTTC | 0.078
CGTTCATA | 0.0823
ACTAATAA | 0.0806
ACGCACCA | 0.0832
ATGGAACA | 0.0787
ACGCTATG | 0.0818
ACGATAGG | 0.085
ATTCATTA | 0.0772
GTACATTA | 0.0774
TCTCATCA | 0.0771
CAACATGC | 0.094
CGAGTGCA | 0.0777
AAAAGACC | 0.071
AAGATGCC | 0.0737
ACACCGGA | 0.0723
ACAAAGGG | 0.0742
AGCGCGAT | 0.0758
AGGTGATC | 0.0832
ACCGACCT | 0.0719
TACTTGGA | 0.0749
GACCAGGA | 0.0732
ACACTATA | 0.0859
TAGGCCTA | 0.0738

Sequence | binding signal (normalized occupancy)
CTTTTATA | 0.0741
ATCAGGTG | 0.0937
AGACTAGG | 0.0738
CCGTTATA | 0.0796
AGCCTCCT | 0.0717
ACAGAACG | 0.0749
ACACAGCG | 0.075
ACCCGAGC | 0.0647
ACTCTGCG | 0.0691
CACCAATG | 0.0783
AGAGTGAC | 0.0747
ATAGTTCC | 0.0748
GCTGTCGA | 0.0755
AAAATGAC | 0.0766
CTGGACCA | 0.0745
ATGCAGTG | 0.0819
CACCCAGG | 0.0759
CACCGCGG | 0.0707
CGCGATTC | 0.081
GAGGATAA | 0.0756
AAAAGCTC | 0.0684
GTTGGTTA | 0.0809
AAGGGGAC | 0.0746
CGCGCCAG | 0.069
CATCCGCC | 0.0779

Sequence | binding signal (normalized occupancy)
ACAGCAAG | 0.0787
ATCTCTTA | 0.08
AAAGTTGT | 0.0691
AAGTCCTA | 0.0712
CGCCGCCA | 0.0713
CCGGAGTA | 0.0702
GGAGAGCC | 0.0707
CGCGGACA | 0.0752
CTAAGGAG | 0.0656
CCGTGCAC | 0.0816
CAAAGCAA | 0.0688
TTCCCCAA | 0.0732
CATGGGAG | 0.0855
CGAATCGA | 0.0744
ACGGTGTG | 0.0815
CCGGATGA | 0.0724
AATAGGCT | 0.0725
CCTTTCGC | 0.0714
GAAGCGTC | 0.0721
ACGATTTG | 0.0757
AAGTACTC | 0.0685
ATAATTTC | 0.0762
GTATAATA | 0.082
ATGCGAAT | 0.0776
CAATGAGC | 0.074

Sequence | binding signal (normalized occupancy)
ACATAGAG | 0.0791
CTTCATGC | 0.0794
AACTGGGA | 0.0697
AGGCCCAA | 0.0701
GAGGACTC | 0.0713
GCGGTTTA | 0.0776
CAACGGTA | 0.0712
CTAAAGGA | 0.0683
ACTTAATA | 0.0776
CATAGGTC | 0.0768
ATCACGTA | 0.0829
CTGTATGA | 0.077
CTCCCTTC | 0.0744
CAAGTCAG | 0.0704
ATATCGCC | 0.0753
GACATTCA | 0.0822
GTCGTAAC | 0.0754
GCGCTGGA | 0.07
AGTCGGGA | 0.0715
ACGGTCAA | 0.0749
CTGCGATC | 0.0754
AGGTTGTC | 0.0771
GCTACCTA | 0.0727
AAATTCTG | 0.0729
GGCGGGAA | 0.0771

Sequence | binding signal (normalized occupancy)
GTTACGAA | 0.0722
CGTCATTC | 0.0738
CAATTGAG | 0.0714
ACTCCCTA | 0.0788
TAGAATGA | 0.0808
TAGTGTGA | 0.0842
CGCCACAG | 0.0708
AAAGTCAA | 0.0707
ACCAATAC | 0.0797
AACACATG | 0.138
CAGAAAGA | 0.0707
AGCCTAAA | 0.07
CCCTACTC | 0.0779
CCAGACGG | 0.0665
GAGATTCA | 0.0714
ATGGACTC | 0.0812
CGACCCAG | 0.0675
CGTGAGAA | 0.0788
AAGGCATC | 0.0702
ACGGGACG | 0.0756
CGGGTATA | 0.0748
TAAGGACA | 0.075
